{"source": "the BET-seq Pho4 binding data (Le et al. 2018)", "note": "Some of the results follow. The energies were worked out here from pooled read counts, against the library average; single values are noisy.", "data": [{"biological_target": "T1, Pho4 (S. cerevisiae) (UniProt P07270)", "T1 sequence": "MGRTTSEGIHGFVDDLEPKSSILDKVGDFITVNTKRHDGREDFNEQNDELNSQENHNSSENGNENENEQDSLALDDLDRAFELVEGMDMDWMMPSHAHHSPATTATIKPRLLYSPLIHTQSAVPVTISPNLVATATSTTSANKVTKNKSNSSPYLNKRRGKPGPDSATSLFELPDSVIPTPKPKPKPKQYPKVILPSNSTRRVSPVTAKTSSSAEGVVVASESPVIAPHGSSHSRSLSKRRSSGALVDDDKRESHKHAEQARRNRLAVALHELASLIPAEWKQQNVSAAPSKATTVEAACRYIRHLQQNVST", "assay": "relative binding free energy (BET-seq); higher = weaker binding", "settings": "reference: library average", "units": {"relative binding free energy": "kcal/mol"}, "values": [{"sequence": "TACGTCACGTGAGTTG", "relative binding free energy": 0.16}, {"sequence": "AGGGTCACGTGAGCTT", "relative binding free energy": 0.23}, {"sequence": "ACGTTCACGTGTGTAG", "relative binding free energy": 0.33}, {"sequence": "TAGATCACGTGAAAGG", "relative binding free energy": 0.28}, {"sequence": "CATTTCACGTGAGGGT", "relative binding free energy": 0.37}, {"sequence": "CTGGGCACGTGGGGTC", "relative binding free energy": -0.33}, {"sequence": "TCATTCACGTGATTTA", "relative binding free energy": 0.29}, {"sequence": "TGTGCCACGTGATAGG", "relative binding free energy": -0.02}, {"sequence": "TTCTGCACGTGATGAG", "relative binding free energy": 0.08}, {"sequence": "GGTATCACGTGATTGA", "relative binding free energy": 0.31}, {"sequence": "CCGTGCACGTGGGATG", "relative binding free energy": -0.13}, {"sequence": "CAGAGCACGTGTGTGT", "relative binding free energy": -0.09}, {"sequence": "AGTTGCACGTGGTAGC", "relative binding free energy": -0.21}, {"sequence": "GTTTACACGTGGAAAG", "relative binding free energy": 0.29}, {"sequence": "GACGTCACGTGTGGGT", "relative binding free energy": 0.22}, {"sequence": "GTTGCCACGTGTGGGG", "relative binding free energy": 0.04}, {"sequence": "AAGTTCACGTGTGGCG", "relative binding free energy": 0.27}, {"sequence": "AGGTGCACGTGCTGAA", "relative binding free energy": -0.11}, {"sequence": "AGCGGCACGTGGAGTA", "relative binding free energy": -0.31}, {"sequence": "TTTCTCACGTGGGGAG", "relative binding free energy": 0.03}, {"sequence": "CTTAACACGTGTGAGG", "relative binding free energy": 0.08}, {"sequence": "GGAAACACGTGGTAGG", "relative binding free energy": -0.07}, {"sequence": "TCGATCACGTGTGTTT", "relative binding free energy": 0.2}, {"sequence": "TGGCGCACGTGAAATG", "relative binding free energy": 0.23}, {"sequence": "AGGGGCACGTGAACGA", "relative binding free energy": 0.19}, {"sequence": "GTTGACACGTGGTAGT", "relative binding free energy": -0.06}, {"sequence": "AGATGCACGTGGGTGT", "relative binding free energy": -0.11}, {"sequence": "TGGCGCACGTGTAGTA", "relative binding free energy": 0.01}, {"sequence": "TAGTGCACGTGTGGCG", "relative binding free energy": -0.01}, {"sequence": "AGTTACACGTGTGGTT", "relative binding free energy": 0.23}, {"sequence": "AATTGCACGTGGGTAA", "relative binding free energy": -0.1}, {"sequence": "TTGTGCACGTGACTTA", "relative binding free energy": 0.03}, {"sequence": "TTGCTCACGTGAGGTC", "relative binding free energy": 0.37}, {"sequence": "GTAATCACGTGTTCGT", "relative binding free energy": 0.13}, {"sequence": "GAGAGCACGTGTGTGT", "relative binding free energy": 0.02}, {"sequence": "TGTTTCACGTGCATCG", "relative binding free energy": 0.21}, {"sequence": "GTTGACACGTGTGGCA", "relative binding free energy": 0.09}, {"sequence": "CTGGTCACGTGCTGGG", "relative binding free energy": 0.22}, {"sequence": "CTGGCCACGTGCGGTT", "relative binding free energy": 0.03}, {"sequence": "TTCGTCACGTGAATAT", "relative binding free energy": 0.27}, {"sequence": "GAGTTCACGTGGTGCT", "relative binding free energy": 0.22}, {"sequence": "GATTGCACGTGGCGGG", "relative binding free energy": -0.1}, {"sequence": "TTGTCCACGTGTTAGG", "relative binding free energy": 0.15}, {"sequence": "TAGAACACGTGTGTGT", "relative binding free energy": 0.02}, {"sequence": "TAATACACGTGGGTTT", "relative binding free energy": -0.18}, {"sequence": "GTATTCACGTGTGGAA", "relative binding free energy": 0.46}, {"sequence": "TATGTCACGTGAGGAG", "relative binding free energy": 0.25}, {"sequence": "GTGTTCACGTGTCGTA", "relative binding free energy": 0.26}, {"sequence": "ATATACACGTGGGTGT", "relative binding free energy": -0.11}, {"sequence": "TTCTACACGTGGGGAT", "relative binding free energy": 0.06}, {"sequence": "ATTAGCACGTGGTGAG", "relative binding free energy": -0.14}, {"sequence": "GGTATCACGTGTTGTC", "relative binding free energy": 0.12}, {"sequence": "ATTTGCACGTGTTGTG", "relative binding free energy": 0.04}, {"sequence": "GGTGGCACGTGGGGTA", "relative binding free energy": -0.16}, {"sequence": "GGAATCACGTGTTATA", "relative binding free energy": 0.12}, {"sequence": "GATGTCACGTGTGACT", "relative binding free energy": 0.28}, {"sequence": "GTTAGCACGTGGCTTT", "relative binding free energy": 0}, {"sequence": "GAGATCACGTGTGGAG", "relative binding free energy": 0.28}, {"sequence": "ATGGTCACGTGAAGTA", "relative binding free energy": 0.32}, {"sequence": "TGGATCACGTGCAATG", "relative binding free energy": 0.26}, {"sequence": "AGTTGCACGTGATCTG", "relative binding free energy": 0.11}, {"sequence": "GAAGTCACGTGTGGGG", "relative binding free energy": 0.18}, {"sequence": "AGGGGCACGTGACAGG", "relative binding free energy": -0.13}, {"sequence": "TGGTTCACGTGGCGAA", "relative binding free energy": 0.12}, {"sequence": "ATTGGCACGTGGGGAA", "relative binding free energy": -0.18}, {"sequence": "GATTGCACGTGTGTTT", "relative binding free energy": 0.16}, {"sequence": "AGAAGCACGTGGGGCA", "relative binding free energy": -0.22}, {"sequence": "GATATCACGTGTGGAA", "relative binding free energy": 0.15}, {"sequence": "TCTTTCACGTGTATTA", "relative binding free energy": 0.26}, {"sequence": "GTCTTCACGTGTTAGT", "relative binding free energy": 0.33}, {"sequence": "GGTTCCACGTGGTATT", "relative binding free energy": 0.03}, {"sequence": "GGAGACACGTGGTAGT", "relative binding free energy": -0.18}, {"sequence": "TGATTCACGTGTTTAA", "relative binding free energy": 0.25}, {"sequence": "TGCTACACGTGTTGGA", "relative binding free energy": 0.16}, {"sequence": "GAGGTCACGTGGTAAA", "relative binding free energy": 0.19}, {"sequence": "AAATCCACGTGTGGTT", "relative binding free energy": 0.21}, {"sequence": "GTGACCACGTGTTGGG", "relative binding free energy": -0.21}, {"sequence": "ATGCACACGTGTGGTG", "relative binding free energy": -0.07}, {"sequence": "GGTATCACGTGGTCTT", "relative binding free energy": 0.22}, {"sequence": "GAAGTCACGTGGGTTT", "relative binding free energy": 0.1}, {"sequence": "GTCTACACGTGAGGGG", "relative binding free energy": 0.26}, {"sequence": "TGGGGCACGTGATACA", "relative binding free energy": 0.09}, {"sequence": "ATGTCCACGTGTGTGC", "relative binding free energy": 0.12}, {"sequence": "AGTGCCACGTGTGGCT", "relative binding free energy": -0.03}, {"sequence": "GAGGGCACGTGGTCAT", "relative binding free energy": -0.14}, {"sequence": "TGAGGCACGTGATAAG", "relative binding free energy": -0.12}, {"sequence": "CATAGCACGTGGGTAT", "relative binding free energy": -0.19}, {"sequence": "AAAGGCACGTGTGTCG", "relative binding free energy": -0.13}, {"sequence": "GTTCTCACGTGCATTG", "relative binding free energy": 0.3}, {"sequence": "ATAGTCACGTGAATTA", "relative binding free energy": 0.34}, {"sequence": "GGAGGCACGTGCTGGC", "relative binding free energy": -0.21}, {"sequence": "ATTATCACGTGAGTAG", "relative binding free energy": 0.28}, {"sequence": "GAGGTCACGTGCATTT", "relative binding free energy": 0.3}, {"sequence": "ATTGTCACGTGATGTG", "relative binding free energy": 0.17}, {"sequence": "TGTTTCACGTGTACAG", "relative binding free energy": 0.29}, {"sequence": "GGCGTCACGTGTATTT", "relative binding free energy": 0.29}, {"sequence": "CGTGACACGTGTGTAT", "relative binding free energy": 0.01}, {"sequence": "TGATGCACGTGGTGAT", "relative binding free energy": 0.03}, {"sequence": "TATGGCACGTGGCGTG", "relative binding free energy": -0.19}, {"sequence": "GTGTTCACGTGAAGGT", "relative binding free energy": 0.49}, {"sequence": "TGTGGCACGTGTAGAC", "relative binding free energy": 0.02}, {"sequence": "AGGGACACGTGAGGTG", "relative binding free energy": 0.19}, {"sequence": "TGTTACACGTGTGGAG", "relative binding free energy": 0.2}, {"sequence": "CATGACACGTGTTGTG", "relative binding free energy": 0}, {"sequence": "TTCGCCACGTGTGGGA", "relative binding free energy": -0.01}, {"sequence": "CCGGCCACGTGTGGGG", "relative binding free energy": -0.06}, {"sequence": "TATTTCACGTGTGAAA", "relative binding free energy": 0.39}, {"sequence": "TGAATCACGTGTGCTG", "relative binding free energy": 0.13}, {"sequence": "TGGGCCACGTGATGAG", "relative binding free energy": 0.01}, {"sequence": "TTGTGCACGTGTTGCG", "relative binding free energy": 0.05}, {"sequence": "TGCGGCACGTGGTTCG", "relative binding free energy": -0.16}, {"sequence": "AATATCACGTGCGTTA", "relative binding free energy": 0.21}, {"sequence": "AGTCACACGTGGTTTA", "relative binding free energy": 0.2}, {"sequence": "ATGGCCACGTGTTCGT", "relative binding free energy": -0.07}, {"sequence": "AATTACACGTGATGAT", "relative binding free energy": 0.17}, {"sequence": "CGGTTCACGTGACGGG", "relative binding free energy": 0.32}, {"sequence": "TTAGGCACGTGTGGAC", "relative binding free energy": -0.05}, {"sequence": "TGGACCACGTGTTGTT", "relative binding free energy": 0.08}, {"sequence": "GAACGCACGTGTTTGG", "relative binding free energy": -0.05}, {"sequence": "TGAAGCACGTGCATGG", "relative binding free energy": -0.09}, {"sequence": "TGATACACGTGTGGCG", "relative binding free energy": -0.06}, {"sequence": "GGGTGCACGTGTCTGG", "relative binding free energy": 0.04}, {"sequence": "TAAGACACGTGGAATG", "relative binding free energy": 0.17}, {"sequence": "GCGGGCACGTGAAGGT", "relative binding free energy": 0.32}, {"sequence": "TAGTTCACGTGCCGGT", "relative binding free energy": 0.26}, {"sequence": "ACGGGCACGTGTTATG", "relative binding free energy": -0.29}, {"sequence": "AGCTGCACGTGAGTCG", "relative binding free energy": 0.43}, {"sequence": "TAGGACACGTGCAGTG", "relative binding free energy": -0.11}, {"sequence": "GGTGTCACGTGTTGAG", "relative binding free energy": 0.12}, {"sequence": "GTACTCACGTGATGGG", "relative binding free energy": 0.23}, {"sequence": "AGAGTCACGTGGGCTG", "relative binding free energy": -0.16}, {"sequence": "CGAGTCACGTGTGTGG", "relative binding free energy": 0.1}, {"sequence": "TTAGCCACGTGGTGGT", "relative binding free energy": -0.12}, {"sequence": "AGGCTCACGTGGATGT", "relative binding free energy": 0.14}, {"sequence": "TTGCGCACGTGAGGAT", "relative binding free energy": 0.18}, {"sequence": "GGATGCACGTGAGTAG", "relative binding free energy": 0.23}, {"sequence": "TTGGTCACGTGGTGGC", "relative binding free energy": 0.18}, {"sequence": "TAGGTCACGTGGAGGA", "relative binding free energy": 0}, {"sequence": "TTTTGCACGTGTAAAG", "relative binding free energy": 0.16}, {"sequence": "TAATGCACGTGTGTGT", "relative binding free energy": 0.06}, {"sequence": "TTCGTCACGTGTCGGT", "relative binding free energy": 0.14}, {"sequence": "CGGTACACGTGGAGGT", "relative binding free energy": -0.03}, {"sequence": "GCAGGCACGTGGGTAA", "relative binding free energy": -0.2}, {"sequence": "TGATGCACGTGGCTGT", "relative binding free energy": -0.1}, {"sequence": "AGTTACACGTGATTAT", "relative binding free energy": 0.17}, {"sequence": "GGTCCCACGTGGTGGA", "relative binding free energy": -0.08}]}]}
